From the supplement of paper PMC4996465

Key:
KB3-1 = assay: viability (% of DMSO control); higher = more viable cells
Method: (§1)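 Eleven-dose screen of the NCATS MIPE 3 library on cells without co-treatment; CellTiter-Glo after 48 h, as % of DMSO wells.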

Nalm-6 = assay: as above
Method: as §1

COc1c(Cl)cc2c([nH]c3cnccc32)c1NC(=O)c1cccnc1C [MLN-120B]
Settings	viability [%]
KB3-1, 0.00078 µM	99.5
KB3-1, 0.00234 µM	97.4
KB3-1, 0.00702 µM	94
KB3-1, 0.0211 µM	98.3
KB3-1, 0.0632 µM	98.7
KB3-1, 0.19 µM	98.1
KB3-1, 0.569 µM	98.2
KB3-1, 1.71 µM	97.8
KB3-1, 5.12 µM	91.3
KB3-1, 15.4 µM	99
KB3-1, 46.1 µM	97.6
Nalm-6, run: 1, 0.00078 µM	92.2
Nalm-6, run: 1, 0.00234 µM	92.2
Nalm-6, run: 1, 0.00702 µM	102
Nalm-6, run: 1, 0.0211 µM	104
Nalm-6, run: 1, 0.0632 µM	104
Nalm-6, run: 1, 0.19 µM	102
Nalm-6, run: 1, 0.569 µM	102
Nalm-6, run: 1, 1.71 µM	100
Nalm-6, run: 1, 5.12 µM	94.3
Nalm-6, run: 1, 15.4 µM	99.1
Nalm-6, run: 1, 46.1 µM	72.1
Nalm-6, run: 2, 0.00078 µM	107
Nalm-6, run: 2, 0.00234 µM	97.5
Nalm-6, run: 2, 0.00702 µM	104
Nalm-6, run: 2, 0.0211 µM	108
Nalm-6, run: 2, 0.0632 µM	101
Nalm-6, run: 2, 0.19 µM	106
Nalm-6, run: 2, 0.569 µM	102
Nalm-6, run: 2, 1.71 µM	102
Nalm-6, run: 2, 5.12 µM	105
Nalm-6, run: 2, 15.4 µM	106
Nalm-6, run: 2, 46.1 µM	93.9

O=C(Nc1nc2ccccc2n1CCN1CCOCC1)c1cccc([N+](=O)[O-])c1
Settings	viability [%]
KB3-1, 0.00078 µM	90.8
KB3-1, 0.00234 µM	90.1
KB3-1, 0.00702 µM	84.1
KB3-1, 0.0211 µM	89.4
KB3-1, 0.0632 µM	88.8
KB3-1, 0.19 µM	89.4
KB3-1, 0.569 µM	90.7
KB3-1, 1.71 µM	89.5
KB3-1, 5.12 µM	93.7
KB3-1, 15.4 µM	89.5
KB3-1, 46.1 µM	66.3
Nalm-6, run: 1, 0.00078 µM	94.9
Nalm-6, run: 1, 0.00234 µM	107
Nalm-6, run: 1, 0.00702 µM	102
Nalm-6, run: 1, 0.0211 µM	104
Nalm-6, run: 1, 0.0632 µM	105
Nalm-6, run: 1, 0.19 µM	97.6
Nalm-6, run: 1, 0.569 µM	113
Nalm-6, run: 1, 1.71 µM	109
Nalm-6, run: 1, 5.12 µM	101
Nalm-6, run: 1, 15.4 µM	95.9
Nalm-6, run: 1, 46.1 µM	50.6
Nalm-6, run: 2, 0.00078 µM	107
Nalm-6, run: 2, 0.00234 µM	107
Nalm-6, run: 2, 0.00702 µM	105
Nalm-6, run: 2, 0.0211 µM	115
Nalm-6, run: 2, 0.0632 µM	102
Nalm-6, run: 2, 0.19 µM	107
Nalm-6, run: 2, 0.569 µM	110
Nalm-6, run: 2, 1.71 µM	109
Nalm-6, run: 2, 5.12 µM	110
Nalm-6, run: 2, 15.4 µM	103
Nalm-6, run: 2, 46.1 µM	49.2

NC(=O)c1ncn([C@@H]2O[C@H](CO)[C@@H](O)[C@H]2O)c1N [Acadesine]
Settings	viability [%]
KB3-1, 0.00078 µM	99.1
KB3-1, 0.00234 µM	104
KB3-1, 0.00702 µM	100
KB3-1, 0.0211 µM	99.1
KB3-1, 0.0632 µM	102
KB3-1, 0.19 µM	105
KB3-1, 0.569 µM	103
KB3-1, 1.71 µM	106
KB3-1, 5.12 µM	107
KB3-1, 15.4 µM	105
KB3-1, 46.1 µM	106
Nalm-6, run: 1, 0.00078 µM	104
Nalm-6, run: 1, 0.00234 µM	113
Nalm-6, run: 1, 0.00702 µM	102
Nalm-6, run: 1, 0.0211 µM	120
Nalm-6, run: 1, 0.0632 µM	103
Nalm-6, run: 1, 0.19 µM	109
Nalm-6, run: 1, 0.569 µM	120
Nalm-6, run: 1, 1.71 µM	121
Nalm-6, run: 1, 5.12 µM	119
Nalm-6, run: 1, 15.4 µM	121
Nalm-6, run: 1, 46.1 µM	123
Nalm-6, run: 2, 0.00078 µM	102
Nalm-6, run: 2, 0.00234 µM	107
Nalm-6, run: 2, 0.00702 µM	97.1
Nalm-6, run: 2, 0.0211 µM	113
Nalm-6, run: 2, 0.0632 µM	102
Nalm-6, run: 2, 0.19 µM	104
Nalm-6, run: 2, 0.569 µM	110
Nalm-6, run: 2, 1.71 µM	111
Nalm-6, run: 2, 5.12 µM	118
Nalm-6, run: 2, 15.4 µM	109
Nalm-6, run: 2, 46.1 µM	126

Cc1cccc(-c2n[nH]cc2-c2ccc3ncccc3n2)n1 [SJN 2511]
Settings	viability [%]
KB3-1, 0.00156 µM	102
KB3-1, 0.00468 µM	111
KB3-1, 0.014 µM	104
KB3-1, 0.0421 µM	109
KB3-1, 0.126 µM	107
KB3-1, 0.379 µM	109
KB3-1, 1.14 µM	114
KB3-1, 3.41 µM	117
KB3-1, 10.2 µM	116
KB3-1, 30.7 µM	119
KB3-1, 92.2 µM	100
Nalm-6, run: 1, 0.00156 µM	98.2
Nalm-6, run: 1, 0.00468 µM	111
Nalm-6, run: 1, 0.014 µM	107
Nalm-6, run: 1, 0.0421 µM	129
Nalm-6, run: 1, 0.126 µM	129
Nalm-6, run: 1, 0.379 µM	119
Nalm-6, run: 1, 1.14 µM	124
Nalm-6, run: 1, 3.41 µM	124
Nalm-6, run: 1, 10.2 µM	115
Nalm-6, run: 1, 30.7 µM	121
Nalm-6, run: 1, 92.2 µM	79.9
Nalm-6, run: 2, 0.00156 µM	96
Nalm-6, run: 2, 0.00468 µM	95.8
Nalm-6, run: 2, 0.014 µM	95.2
Nalm-6, run: 2, 0.0421 µM	107
Nalm-6, run: 2, 0.126 µM	103
Nalm-6, run: 2, 0.379 µM	101
Nalm-6, run: 2, 1.14 µM	104
Nalm-6, run: 2, 3.41 µM	99.4
Nalm-6, run: 2, 10.2 µM	95.7
Nalm-6, run: 2, 30.7 µM	96.3
Nalm-6, run: 2, 92.2 µM	67.9

CCN(CC)CCCC(C)Nc1nc(C)cc(Nc2ccc3nc(C)cc(N)c3c2)n1 (stereo unspecified)
Settings	viability [%]
KB3-1, 0.00078 µM	98.3
KB3-1, 0.00234 µM	96.9
KB3-1, 0.00702 µM	98.3
KB3-1, 0.0211 µM	95.7
KB3-1, 0.0632 µM	97.2
KB3-1, 0.19 µM	95.6
KB3-1, 0.569 µM	92.7
KB3-1, 1.71 µM	89.6
KB3-1, 5.12 µM	90.8
KB3-1, 15.4 µM	93.4
KB3-1, 46.1 µM	23.7
Nalm-6, run: 1, 0.00078 µM	96.6
Nalm-6, run: 1, 0.00234 µM	98.8
Nalm-6, run: 1, 0.00702 µM	98.9
Nalm-6, run: 1, 0.0211 µM	96.8
Nalm-6, run: 1, 0.0632 µM	103
Nalm-6, run: 1, 0.19 µM	107
Nalm-6, run: 1, 0.569 µM	92.1
Nalm-6, run: 1, 1.71 µM	93.2
Nalm-6, run: 1, 5.12 µM	90.4
Nalm-6, run: 1, 15.4 µM	90
Nalm-6, run: 1, 46.1 µM	48.4
Nalm-6, run: 2, 0.00078 µM	104
Nalm-6, run: 2, 0.00234 µM	97.3
Nalm-6, run: 2, 0.00702 µM	105
Nalm-6, run: 2, 0.0211 µM	92.4
Nalm-6, run: 2, 0.0632 µM	99.9
Nalm-6, run: 2, 0.19 µM	91.9
Nalm-6, run: 2, 0.569 µM	98.4
Nalm-6, run: 2, 1.71 µM	97.5
Nalm-6, run: 2, 5.12 µM	97.5
Nalm-6, run: 2, 15.4 µM	94.8
Nalm-6, run: 2, 46.1 µM	53.7

O=C(O)c1cc(/N=N/c2ccc(S(=O)(=O)Nc3ccccn3)cc2)ccc1O [Sulfasalazine]
Settings	viability [%]
KB3-1, 0.00078 µM	98.2
KB3-1, 0.00234 µM	97.4
KB3-1, 0.00702 µM	99.7
KB3-1, 0.0211 µM	98
KB3-1, 0.0632 µM	103
KB3-1, 0.19 µM	103
KB3-1, 0.569 µM	98.8
KB3-1, 1.71 µM	99.7
KB3-1, 5.12 µM	101
KB3-1, 15.4 µM	96.5
KB3-1, 46.1 µM	98.4
Nalm-6, run: 1, 0.00078 µM	97.6
Nalm-6, run: 1, 0.00234 µM	105
Nalm-6, run: 1, 0.00702 µM	98
Nalm-6, run: 1, 0.0211 µM	98.9
Nalm-6, run: 1, 0.0632 µM	107
Nalm-6, run: 1, 0.19 µM	103
Nalm-6, run: 1, 0.569 µM	104
Nalm-6, run: 1, 1.71 µM	118
Nalm-6, run: 1, 5.12 µM	112
Nalm-6, run: 1, 15.4 µM	110
Nalm-6, run: 1, 46.1 µM	107
Nalm-6, run: 2, 0.00078 µM	110
Nalm-6, run: 2, 0.00234 µM	111
Nalm-6, run: 2, 0.00702 µM	100
Nalm-6, run: 2, 0.0211 µM	108
Nalm-6, run: 2, 0.0632 µM	104
Nalm-6, run: 2, 0.19 µM	101
Nalm-6, run: 2, 0.569 µM	105
Nalm-6, run: 2, 1.71 µM	112
Nalm-6, run: 2, 5.12 µM	104
Nalm-6, run: 2, 15.4 µM	106
Nalm-6, run: 2, 46.1 µM	106

COc1ccc(CC2SC(=O)NC2=O)cc1C(=O)NCc1ccc(C(F)(F)F)cc1 (stereo unspecified) [MK-767]
Settings	viability [%]
KB3-1, 0.00078 µM	105
KB3-1, 0.00234 µM	106
KB3-1, 0.00702 µM	104
KB3-1, 0.0211 µM	105
KB3-1, 0.0632 µM	102
KB3-1, 0.19 µM	105
KB3-1, 0.569 µM	106
KB3-1, 1.71 µM	98
KB3-1, 5.12 µM	104
KB3-1, 15.4 µM	105
KB3-1, 46.1 µM	82.9
Nalm-6, run: 1, 0.00078 µM	103
Nalm-6, run: 1, 0.00234 µM	108
Nalm-6, run: 1, 0.00702 µM	109
Nalm-6, run: 1, 0.0211 µM	102
Nalm-6, run: 1, 0.0632 µM	103
Nalm-6, run: 1, 0.19 µM	99
Nalm-6, run: 1, 0.569 µM	111
Nalm-6, run: 1, 1.71 µM	107
Nalm-6, run: 1, 5.12 µM	104
Nalm-6, run: 1, 15.4 µM	105
Nalm-6, run: 1, 46.1 µM	79.5
Nalm-6, run: 2, 0.00078 µM	99.8
Nalm-6, run: 2, 0.00234 µM	94.4
Nalm-6, run: 2, 0.00702 µM	96.1
Nalm-6, run: 2, 0.0211 µM	88.5
Nalm-6, run: 2, 0.0632 µM	98.1
Nalm-6, run: 2, 0.19 µM	98.2
Nalm-6, run: 2, 0.569 µM	101
Nalm-6, run: 2, 1.71 µM	100
Nalm-6, run: 2, 5.12 µM	96.6
Nalm-6, run: 2, 15.4 µM	102
Nalm-6, run: 2, 46.1 µM	79.6

Viability of KB3-1 and Nalm-6 cells after 48 h of drug alone (CellTiter-Glo), 11 doses over about 4.5 log units. % of DMSO wells, lower = more cell loss; AC50 from the fitted curve, lower = more potent. No active / inactive call. Nalm-6 was screened in two runs. AC50 is listed only for well-fitted inhibitory curves. KB3-1 is a HeLa-derived carcinoma line, Nalm-6 a B-cell precursor leukaemia line.
